Measured values reported in patent US20260200947A1, “FUSED CYCLIC COMPOUNDS AND USE THEREOF” (Jacobio Pharmaceuticals Co., Ltd., priority 2022, published 2026).

Tests used:
[1] = system: AsPC-1 cells (K-Ras G12D)

For `C#Cc1c(F)ccc2cc(N)cc(-c3nc4c5c(nc(OC[C@@]67CCCN6C[C@H](F)C7)nc5c3F)N3C5CC5COC[C@H]3CO4)c12` (some centres unmarked) [Compound 35], which IC50 (AGS cells (K-Ras G12D)) is on record?
Its IC50 is 38 nM.

What about the IC50 [1] of the same compound?
Its IC50 is 667 nM.
